Measured values as given in PubChem BioAssay AID1240 (Sanford-Burnham Center for Chemical Genomics, 2008).
About 800 (1.6%) of roughly 50,000 compounds showed an effect of 50% or more. The list shows a part of the results.

What follows are molecules tested against Bcl-2-like protein 10 (Homo sapiens) (UniProt Q9HD36) (assay: Phenotype converters, Bcl-B/TR3 peptide binding displacement, primary biochemical FP (AID 1240;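 note: 0% = Bcl-B with tracer peptide and DMSO and 100% = tracer peptide lacking Bcl-B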)). Conditions: GST-Bcl-B / FITC-TR3 peptide fluorescence polarization; stronger effect = higher value; compound at 3.75 mg/L.
Sequence of UniProt Q9HD36 (Q9HD36 whole entry, looked up): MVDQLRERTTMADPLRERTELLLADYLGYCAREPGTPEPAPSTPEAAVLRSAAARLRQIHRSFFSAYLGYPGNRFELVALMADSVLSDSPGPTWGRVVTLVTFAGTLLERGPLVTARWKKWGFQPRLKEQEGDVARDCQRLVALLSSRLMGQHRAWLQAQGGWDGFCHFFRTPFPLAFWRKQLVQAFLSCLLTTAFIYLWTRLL

SMILES | displacement
O=C(CCNc1ccc(Cl)c(Cl)c1)c1cccs1 | -1.4%
Clc1cccc(C=NN2CCN(Cc3ccccc3Cl)CC2)c1 | -2.6%
O=C(NN(C(=O)C1CC1)c1nc2ccccc2s1)C1CC1 | -2.4%
Cc1ccc(NC(=O)COc2ccc(Cl)c(C)c2)c([N+](=O)[O-])c1 | 11%
O=C(CSc1nc2ccccc2[nH]1)Nc1ccccc1-c1ccccc1 | -7.4%
CC(=O)c1ccc(NC(=O)/C=C/c2ccccc2)cc1 | 6.5%
COc1ccc(CNC(=O)CN2C(=O)c3ccccc3C2=O)cc1 | -1.9%
CCOc1ccc2c(c1)SCC(=O)N2 | -2.8%
CCOc1cc(/C=C(\C#N)c2nc3ccccc3s2)ccc1O | 0%
Cc1ccc(C2CC(C(F)(F)F)n3ncc(C(=O)Nc4ccccc4C(F)(F)F)c3N2)cc1 (configuration not stated) | -1.8%
COc1ccc(Cc2ccc(OC)cc2)cc1 | 20.4%
O=C(Nc1ccc(Cl)c(Cl)c1)Nc1nnc(-c2ccccc2I)s1 | -1.9%
CCC(=O)Nc1sc(Cc2ccccc2)c(C)c1C(N)=O | -4.5%
O=C(c1ccccc1)c1ccc(C(=O)N(CCCCN2C(=O)c3ccccc3C2=O)c2ccc(F)cc2F)cc1 | 8.6%
CCC(Oc1ccccc1)C(=O)Nc1nc2ccc(C)cc2s1 (configuration not stated) | 14.5%
CC1CCC2(CC1)C(C#N)=C1SCCCN1C(=O)C2C#N (configuration not stated) | -3.9%
Cc1ccc(OCCNC(=O)Cc2cccc3ccccc23)cc1C | -14.6%
COc1ccc(C2/C(=C(/O)c3ccccc3)C(=O)C(=O)N2CC2CCCO2)c(OC)c1 (configuration not stated) | 5.5%
CC(=O)C1=C(O)C(=O)N(CCN(C)C)C1c1ccc(F)cc1 (configuration not stated) | -8.3%
COc1ccc(N2C(=O)NC(=O)/C(=C\c3c(OC)ccc4ccccc34)C2=O)cc1 | 6.7%
C/C(NCCCN1CCOCC1)=C(\C#N)C(=O)NCc1ccccc1 | -12.7%
CCOC(=O)C1=C(C)NC(C)=C(C(=O)OC)C1c1ccccc1 (configuration not stated) | 3.3%
CCOC(=O)c1ccc(N2NC(=O)/C(=C/c3cccc([N+](=O)[O-])c3)C2=O)cc1 | 8.9%
COC(=O)c1c(NC(=O)c2ccc(C)c(C)c2)sc2c1CCCCC2 | -7%

SMILES | displacement
Ic1ccc(-c2nc(-c3ccccc3)no2)cc1 | 7.6%
O=C(O)C(c1ccccc1)N1C(=O)c2cccc3cccc(c23)C1=O (configuration not stated) | 14.7%
COc1cc(C(=S)N2CCOCC2)ccc1OS(=O)(=O)c1ccc(C)cc1 | 3.9%
Cc1ccc(NC(=O)COc2ccc(Br)cc2)c(C)c1 | 4.4%
Cc1c(OCC(=O)c2ccccc2)ccc2c3c(c(=O)oc12)CCC3 | -5.1%
Cc1ccccc1CNC(=O)c1ccc(Cl)cc1 | -0.7%
COc1ccc(N(CC(=O)N2CCOCC2)S(C)(=O)=O)cc1Cl | -6.4%
Cc1ccc(OCC(O)CN2CC(C)OC(C)C2)cc1C (configuration not stated) | 6.3%
COc1cccc(C(=O)/C=C/c2ccc(SC)cc2)c1 | -5.8%
Cc1cccc(/C=N\NC(=O)c2ccccc2Cl)c1O | 35.7%
Cc1cccc(-c2nnc(-c3ccco3)o2)c1 | 2.1%
CCCOc1ccc(C(=O)N2CCCCC2C)cc1 (configuration not stated) | 0.7%
CC(C)(C)NC(=O)CN(c1cccc(C(F)(F)F)c1)S(C)(=O)=O | -2.2%
COc1ccc2oc(=O)c(C(C)=O)cc2c1 | 20.4%
COc1cccc(/C=C2/SC(=O)N(CNc3ccc(Br)cc3C)C2=O)c1 | 9%
Nc1nnc(SCC(=O)N2c3ccccc3Sc3ccccc32)s1 | -2%
O=C(CSc1ncccn1)NCCc1ccccc1 | 3.9%
Nc1nnc(CC(=O)N/N=C/c2cc3c(cc2Br)OCO3)s1 | 22%
COc1ccc(/C=C/C(=O)c2cccc([N+](=O)[O-])c2)cc1 | 14.9%
COc1cc(/C=N/NC(=O)C(=O)N2CCCCCC2)ccc1O | 0%
CNC(=O)/C(=C/c1ccc(-c2ccc(Cl)cc2)o1)NC(=O)c1ccc(Cl)cc1 | -5.1%
c1ccc(-n2ncc3c(NCc4ccco4)ncnc32)cc1 | 30.7%
CCOC(=O)c1c(NC(=O)CN2CCN(C)CC2)sc2c1CCC2 | 8.4%
O=[N+]([O-])c1ccc(C2Nc3ccc(OC(F)(F)F)cc3C3C=CCC32)cc1 (configuration not stated) | 12.9%

SMILES | displacement
COc1ccc(OC)c(CN2CCN(Cc3ccccc3OC)CC2)c1 | 7.3%
O=C(Cc1c(O)c2ccccc2[nH]c1=O)NCc1ccc(Cl)cc1 | 5.9%
O=C(CSc1nc2ccc(N3C(=O)c4ccccc4C3=O)cc2s1)Nc1ccc(F)cc1 | -15.9%
CC(C)(C)c1cc(C=NN2CCN(Cc3ccccc3)CC2)cc(C(C)(C)C)c1O | -8%
O=C(CCN1CCCCCC1)c1ccccc1 | 6.8%
Cc1ccc(S(=O)(=O)Nc2cc(C)c(O)c(Sc3nc4ccccc4s3)c2)cc1 | -2.2%
CC(=O)N(C1=C(Cl)C(=O)c2ccccc2C1=O)c1cccc(Br)c1 | 34.4%
CCOc1ccccc1N(CC(=O)N1CCCC1)S(=O)(=O)c1ccccc1 | 8.7%
CC(=O)C1=C(C)NC(C)=C(C(C)=O)C1c1ccc(-c2ccccc2[N+](=O)[O-])o1 | 10.8%
O=c1cnnc(N/N=C/c2ccc(Br)cc2)[nH]1 | -7.7%
CC1=C(C(=O)OC(C)C)C(c2cccc(Cl)c2Cl)C2=C(CC(C)(C)CC2=O)N1 (configuration not stated) | 12.1%
O=C(N/N=C/c1cccc(Br)c1)c1ccc(N2CCCC2=O)cc1 | -0.6%
O=C1C(=O)N(c2cccnc2)C(c2ccccc2)/C1=C(\O)c1ccc(Cl)cc1 (configuration not stated) | 4.7%
CC1CCc2c(sc(NC(=O)c3ccccc3[N+](=O)[O-])c2C(=O)OC(C)C)C1 (configuration not stated) | 9.6%
COc1ccc(OC)c(NC(=S)NC(=O)c2ccco2)c1 | 11.6%
O=C(Nc1ccccc1C(=O)N1CCN(Cc2ccccc2)CC1)c1ccccc1F | 12.8%
S=C(Nc1ccc2nccnc2c1)N1CCOCC1 | -1.7%
CCc1ccc(/C=C(/C#N)c2nc(-c3ccc(Br)cc3)cs2)cc1 | -3.5%
COC(=O)C1=C(C)N(Cc2cccnc2)C(=O)/C1=C\c1ccc(Br)cc1 | -7.5%
CC(C)COC(=O)c1ccc(NC(=O)c2cccs2)cc1 | -6%
O=C1NC(=S)S/C1=C/c1ccncc1 | -10.1%
CCOC(=O)c1cc(CC)sc1NC(=O)COc1ccc(Cl)cc1Cl | -5.2%
COc1cc(/C=C2\SC(=S)N(c3ccc([N+](=O)[O-])cc3)C2=O)ccc1OC(=O)c1cccc(C)c1 | -3%
CCOC(=O)c1c(-c2ccccc2)oc2cc(Br)c(OC(C)C(=O)OC)cc12 (configuration not stated) | 9.9%
